Experimental data: the supplement of paper PMC11417369
The list shows a part of the results.

Test system: PF3D7_0420300 AP2 domain 1 (GST-tagged)
Test: gcPBM binding intensity (ln(normalized median fluorescence intensity)); higher = stronger DNA binding
Summary of the method: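 GST-fused DNA-binding domains of P. falciparum, expressed in E. coli, were applied at about 25 μg on average for 1 h to an Agilent 4 × 180k array of primer-extended double-stranded 36-bp intergenic genomic probes and negative controls. Binding intensity is the highest Masliner-normalised natural-log median intensity across replicate spots of either probe orientation, measured with Alexa488 anti-GST antibody and a 488 nm scan.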

In order of falling “gcPBM binding intensity (ln)” value:
1. AAAAAAAACAGACACACACACAAATATATAAAAATA [CACACA_site1172]  10
2. TATTAAAAGAAAATAACACACACAAAAAAAAAAAAA [CACACA_site8661]  9.82
3. GGATGATTAAGGGGGACACACGTTTATATATTTATA [CACACA_site4342]  9.82
4. TAAATATAAACACAAACACACACATATATATATATA [CACACA_site7978]  9.77
5. CGAAACCATATGTACACACACATATATAAATATGTA [CACACA_site7082]  9.76
6. CTAAAACAATAAATCACACATACATAGGATAATATA [CACACA_site4247]  9.71
7. TACAAATATATATGCACACACATATCTGTATATGTG [CACACA_site5663]  9.68
8. AAATATATATATATAATACACACTAAAGTAACATAA [CACACA_site2870]  9.68
9. ATAGAAGGACATATAACACACATATATTATAAGTAT [CACACA_site5461]  9.68
10. GAAAAAAAAAAAAATACACACAAATTGGTATATAAC [CACACA_site6315]  9.66
11. ATTTATCTATAATATACACACATATAACAGACATAT [CACACA_site6469]  9.65
12. TATAAAAAATGATAAAGTACTTTATACACACAAATA [XGTACX_site8486]  9.64
13. TATATACATGTGAGAGTGCATATAGACATAAAAAAT  9.59
14. AAATAGGGAATTTATGCACACAGTTAAGGGGGAAAA [CACACA_site2071]  9.56
15. AAAATATACACACATATGTATATAATATTATATGTA [GTGCAC_negctrl_site496]  9.49
16. ATATATCAACTCATATTATTTTCTTTTATTATTTAT [CACACA_negctrl_site276]  9.46
17. AAAACGTATCACAAAAGTACAGATAGTTATAATATA [XGTACX_site185]  9.43
18. AATAATGAATACACATGTACAAAAATTTTTCTTACT [XGTACX_site1962]  9.41
19. TCAATTTGGAACGGTATGCACTAATTTTATATTTTT  9.41
20. AATTGTATAAATGGAATAATGACTATGATTATACAT [GTGCAC_negctrl_site188]  9.41
21. TTTTTGAAATAATGAAACAGCAAAAAAACAAAAATA [CACACA_negctrl_site221]  9.39
22. ACACATTATAACAAGGTGCAATTTTTATACACATGT [GTGCAC_site9866]  9.39
23. ATTTATAATCTGTATAGTACACATATATACATGGTT [XGTACX_site2714]  9.37
24. CACTAATAGTGGATTACACACATATAGATGTATATA [CACACA_site7234]  9.35
25. AAACATCATAAATATACACACATATATATATATATA [CACACA_site620]  9.34
26. TTTATATTTCTCTTTAGTACATATTATATTCTTTTA [XGTACX_site1618]  9.34
27. AATAAATTAATAAGGTGTACATAAATAATTTATATA [XGTACX_site8278]  9.34
28. ATTAATTTTCCATTCACACATATATATATATATATA [CACACA_site6065]  9.33
29. AATGAAAATAAATTAACACACAATTTTAATATTGTT [CACACA_site1306]  9.32
30. AAAATAAGCGTGAAACGTACATATTACATTATTATA [XGTACX_site8914]  9.31
31. GTATACTTAACATTCACACATATATATATATATAAA [CACACA_site4596]  9.3
32. ATAGCATATATTTTTTGTACATATGTTATATATATA [XGTACX_site2184]  9.29
33. ATATACAGATAAATGTGTACTTAAATCTATTATATT [XGTACX_site2632]  9.27
34. ATAATATATATATAGTGTACATTTGAATATATTTGA [XGTACX_site583]  9.26
35. GCTATAATAAAATTTAAACACACGTAATATAATATA [CACACA_site2592]  9.26
36. AAAAATTCTTGGCGCACACACTTTAAAAGTTAAAAA [CACACA_site6430]  9.25
37. ATATATTTTGTATGTAGTACAATTTTATAATCATAT [XGTACX_site8373]  9.24
38. TATTACAAATATGGCACACATATATATATATATATT [CACACA_site3268]  9.23
39. ATGTAGATATATATCTGTACGTATATGTAAATATTA [XGTACX_site1516]  9.23
40. TACACAAAATTTAAATGTACATTAAATATATGATGT [XGTACX_site2140]  9.21
41. AAGGTCATTTTATATTGTACATGAAATTGTTATGTA [XGTACX_site187]  9.2
42. TGATAGCTAGCTATATGTACATATATATATATATAT [XGTACX_site393]  9.18
43. TGTCGACATGTAGGTAGTACTATTAAAAATAATGAT [XGTACX_site3849]  9.18
44. AAAATTTCATAAAGACGTACTATAAAAATAAAATTA [XGTACX_site4182]  9.17
45. ACAAAGACAATTTTGTTATATATAAAAAAAAAAAAT [CACACA_negctrl_site253]  9.17
46. ATATATTATTATATATGTACTTATTTATAAATGATT [XGTACX_site7597]  9.17
47. CAAATATCTATTTAGTGTACTAATATATTCAATAAT [XGTACX_site2345]  9.11
48. CTTTCGGTTGGAGAGGTGCGCTTCTCCTTTATAATA  9.1
49. TCTTAAATATACAGTTGTACTAAACAAAAAAAAAAA [XGTACX_site2639]  9.09
50. ATTCAAAAGGTTTAATGTACGTGATGTTTCACAAAT [XGTACX_site784]  9.09
51. TCATTCTATCTGTTCACACATACACAAAAAAAAAAA [CACACA_site5141]  9.08
52. TATATAAAACCTTATTGTACTATTAGACTATGCTTA [XGTACX_site6026]  9.06
53. ATATATATATATATATGTACTTATAATTCTTCAATT [XGTACX_site5627]  9.03
54. AATTATTTACCTTCTTTGAAAGAACAAATGATACAA [CACACA_negctrl_site1315]  8.96
55. AATTCTTTTTATATATTAAATATTATTAATAAGTCA [CACACA_negctrl_site1488]  8.93
56. TATAAAAAATATCCTTTTTTTATACATCAATATATA [TGCATGCA_negctrl_site291]  8.92
57. GTATATTTCTTTAAATGTACACATTTTTTTAAAGAG [XGTACX_site1225]  8.85
